The text below walks through data of patent US4877870A, “Process for producing 10-hydroxyanthracyclines” (Kirin Beer Kabushiki Kaisha, priority 1986, dated 1989).

The nature of the data set: Solubility.

Molecules are shown by their SMILES.

Turning to `CC[C@@]1(O)C[C@H](O[C@H]2C[C@H](N3CCOCC3)[C@H](O)[C@H](C)O2)c2c(O)c3c(c(O)c2[C@H]1O)C(=O)c1cccc(O)c1C3=O` [M-R20X2, 3'-deamino-3'-(4-morpholinyl)-13-deoxo-10-hydroxycarminomycin], the “Solubility: insoluble in” value was “Insoluble in water, hexane, cyclohexane, diethyl ether, and petroleum ether”; the “Solubility: soluble in” value is “Soluble in acidic water, basic water, methanol, ethanol, propanol, acetone, ethyl acetate, and chloroform”.

In the case of `CC[C@@]1(O)C[C@H](O[C@H]2C[C@H](N)[C@H](O)[C@H](C)O2)c2c(O)c3c(c(O)c2[C@H]1O)C(=O)c1cccc(O)c1C3=O` [R20X2, 13-deoxo-10-hydroxycarminomycin], the “Solubility: insoluble in” value is reported as “Insoluble: water” and the “Solubility: soluble in” value was “Soluble: acidic water, basic”.
